Test results: PubChem BioAssay (NCATS)
Several values for one entry are separate records, joined by “and”; a condition that tells them apart may be missing. Equal values may be shown once. Inconclusive means that the source gave no clear call. Such entries were picked first, then a sample of the others. For part of these data: Where the call is inconclusive, the potency comes from a doubtful curve fit. Activity calls are given as the source filed them. Unless noted, calls come from the whole dose curve; as a rule, active = well fitted curve in the direction sought with a large enough effect in the repeat runs; inconclusive = weak or mixed curves; inactive = no such curve, though single readings can be large; an effect the other way counts as inactive or inconclusive.

Test system: not listed separately
Assay: qHTS assay for small molecule activators of the p53 signaling pathway (AID 651743; active = well fitted activation curve with a large enough effect in the signal ratio, not every such curve was filed as active; inconclusive = small, poorly fitted or top-dose-only effect, or a change in a side signal; the % refers to the signal ratio; note: potency is the fitted concentration of half-maximal effect; for activation: % of control where 0% means no effect)
Details: HCT-116 p53RE-bla, beta-lactamase FRET ratio, 16 h; activation: hits give high values
Summary of the method: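 HCT-116 p53RE-bla, 4,000 cells/well; 5 h settle; cpd/DMSO 16 h, 37 C; LiveBLAzer B/G 2 h RT; fluorescence intensity.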
Tags give direction and shape of the fitted curve.

Row | SMILES | activation | Potency
1 | ClCc1ccccc1 | inactive: -2.55% | –
2 | Nc1ccc([N+](=O)[O-])cc1N | – | inconclusive: 35.5 µM [activator, single point]
3 | ClC(Cl)(Cl)Cl | inactive: -0.523% and inactive: 1.98% | –
4 | c1ccc2cc3c(cc2c1)-c1cccc2cccc-3c12 | – | active: 6.31 µM and active: 8.91 µM
5 | Brc1ccc(Oc2ccc(Br)cc2Br)c(Br)c1 | inactive: 2.43% | –

Test system: not listed separately
Assay: qHTS assay for small molecule activators of the nuclear factor-kappa B (NF-kB) signaling pathway (AID 651749; active = well fitted activation curve with a large enough effect in the signal ratio; inconclusive = small, poorly fitted or top-dose-only effect, or a change in a side signal; the % refers to the signal ratio; note: potency is the fitted concentration of half-maximal effect; for activation: % of control where 0% means no effect)
Details: NF-kB-bla ME-180 cells, beta-lactamase FRET ratio, 16 h; activation: hits give high values
Summary of the method: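 Incubation lasted 16 hr at 37C in 5% CO2 after 23 nL compound addition to ME-180 NF-kB-bla cells. Activation appears as beta-lactamase-mediated FRET loss.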

Row | SMILES | Potency | activation
6 | c1ccc2c(c1)-c1cccc3cccc-2c13 | inconclusive: 50.1 µM [activator, single point] | –
7 | O=C(O)C(Br)CBr (centres undefined) | – | inactive: 1.48%
8 | ClC(Cl)(Cl)Cl | – | inactive: 2.09% and inactive: -0.921%
9 | c1ccc2cc3c(cc2c1)-c1cccc2cccc-3c12 | active: 7.08 µM and active: 4.47 µM | –

Test system: not listed separately
Assay: qHTS assay for small molecule disruptors of the mitochondrial membrane potential - 1 hr assay (AID 651754; calls by dose curve; note: nearly all actives have a fitted effect of over 35% in size; note: potency is the fitted concentration of half-maximal effect; for ratio change, negative = depolarisation: % is set by controls: 0 for no effect and ±100 for the full control effect)
Details: ratio change, negative = depolarisation: at 92.2 µM (top of the series)
Summary of the method: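 HepG2 cells, attached overnight at 37C, were exposed to compound or DMSO vehicle for 1 hr at 37C, 5% CO2, then stained with Mito-MPS dye for 30 min. Red aggregate versus green monomer fluorescence reports membrane potential.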

Row | SMILES | ratio change, negative = depolarisation | Potency
10 | ClCc1ccccc1 | inconclusive: -0.85% | –
11 | c1ccc2c(c1)-c1cccc3cccc-2c13 | inconclusive: -23.1% | –
12 | Nc1ccc([N+](=O)[O-])cc1N | – | inconclusive: 42.2 µM [inhibitor, partial curve, poor fit]
13 | Nc1ccccc1C(=O)OCCc1ccccc1 | inconclusive: -26.1% | –
14 | Cc1cc(N=Nc2ccccc2C)ccc1N | – | inconclusive: 59.6 µM [inhibitor, partial curve]
15 | Brc1ccc(Oc2ccc(Br)cc2Br)c(Br)c1 | inconclusive: -33.3% | –
16 | CCOP(=S)(OCC)Oc1ccc([N+](=O)[O-])cc1 | inconclusive: -18.9% | inconclusive: 75 µM [inhibitor, partial curve, poor fit]

Target: Tumor necrosis factor (Homo sapiens) (UniProt P01375)
Assay: qHTS assay to identify small molecules that stimulate Tumor Necrosis Factor-alpha (TNF-alpha) secretion (AID 651757; active = well fitted curve in the direction sought with a large enough effect in the signal ratio; inconclusive = small, poorly fitted or top-dose-only effect, or a change in a side signal; inactive = no such curve, though single readings can be large or run the other way; the % refers to the signal ratio; note: 0% is about no effect)
Details: Human cells, HTRF 665/615 ratio; activation (TNF-alpha secretion): at 92.2 µM (top of the series)
Summary of the method: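 THP-1 cells were exposed to compounds for 17 hrs at 37 C, after which secreted TNF-alpha was measured by homogeneous HTRF (TR-FRET) using cryptate- and XL665-labeled anti-TNF-alpha antibodies, read after 3 hr at room temperature.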

UniProt P01375, sequence (P01375 whole entry, looked up): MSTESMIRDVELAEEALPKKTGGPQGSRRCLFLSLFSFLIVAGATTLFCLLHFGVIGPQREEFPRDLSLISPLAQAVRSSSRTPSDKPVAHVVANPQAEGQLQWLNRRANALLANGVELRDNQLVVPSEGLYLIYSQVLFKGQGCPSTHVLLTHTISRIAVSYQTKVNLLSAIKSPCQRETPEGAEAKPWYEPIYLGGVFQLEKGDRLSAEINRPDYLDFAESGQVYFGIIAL

Row | SMILES | activation (TNF-alpha secretion)
17 | Nc1ccc([N+](=O)[O-])cc1N | inconclusive: 0.304%
18 | Cc1cc(N=Nc2ccccc2C)ccc1N | inconclusive: 0.638%
19 | c1ccc(Nc2ccc(Nc3ccccc3)cc2)cc1 | inconclusive: 0.167%
20 | c1ccc2cc3c(cc2c1)-c1cccc2cccc-3c12 | inactive: 1.21%
21 | CN(C)c1ccc(N(C)C)cc1 | inconclusive: 3.46%

Test system: not listed separately
Assay: qHTS assay to identify small molecules that stimulate interleukin-8 (IL-8) secretion (AID 651758; active = well fitted activation curve with a large enough effect in the signal ratio; inconclusive = small, poorly fitted or top-dose-only effect, or effect the other way, or a change in a side signal; the % refers to the signal ratio; note: potency is the fitted concentration of half-maximal effect; for activation: 0% is about no effect)
Details: HTRF ratio (665/615); activation: at 92.2 µM (top of the series)
Summary of the method: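 THP-1 cells (2000/well) exposed to compound 16 h at 37 C; secreted IL-8 then detected by HTRF with cryptate- and XL665-labelled anti-IL-8 antibody pair after 1-3 h at room temperature.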

Row | SMILES | activation | Potency
22 | ClCc1ccccc1 | inconclusive: 20% | –
23 | c1ccc2c(c1)-c1cccc3cccc-2c13 | inconclusive: 19.5% | –
24 | O=C(O)C(Br)CBr (centres undefined) | inconclusive: 22.9% | –
25 | N#CC(Br)Br | inconclusive: -18.6% | –
26 | ClCC1CO1 (centres undefined) | inactive: -13.9% | –
27 | O=[N+]([O-])c1ccccc1CCl | inconclusive: -13.1% | –
28 | Nc1ccc([N+](=O)[O-])cc1N | inconclusive: 7.95% | –
29 | Nc1ccccc1C(=O)OCCc1ccccc1 | inconclusive: -5.54% | –
30 | ClC(Cl)(Cl)Cl | inconclusive: 14.5% | –
31 | Cc1cc(N=Nc2ccccc2C)ccc1N | inactive: -4.76% | –
32 | c1ccc(Nc2ccc(Nc3ccccc3)cc2)cc1 | – | inconclusive: 59.6 µM [rising, partial curve]
33 | C(CCOCC1CO1)COCC1CO1 (centres undefined) | – | inconclusive: 75 µM [activator, single point]
34 | c1ccc2cc3c(cc2c1)-c1cccc2cccc-3c12 | – | inconclusive: 75 µM [activator, single point]
35 | O=[N+]([O-])c1cc(C(F)(F)F)cc([N+](=O)[O-])c1Cl | inactive: 24.6% | –
36 | Brc1ccc(Oc2ccc(Br)cc2Br)c(Br)c1 | inconclusive: 6.8% | –
37 | CN(C)c1ccc(N(C)C)cc1 | – | inconclusive: 75 µM [activator, single point]
38 | CCOP(=S)(OCC)Oc1ccc([N+](=O)[O-])cc1 | inconclusive: 0.686% and inconclusive: 9.5% | –
39 | [O]=[Cd] | inconclusive: 27.2% | –

Test system: not listed separately
Assay: qHTS assay for small molecule agonists of the antioxidant response element (ARE) signaling pathway measured by Nrf2-dependant transcriptional activity (AID 720636); note: potency is the fitted concentration of half-maximal effect
Details: ARE-luc HepG2, Nrf2 luciferase reporter, 16 h; series mostly up to 92.4 µM; activation: at the top concentration
Summary of the method: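 Reporter gene assay, HepG2 ARE-luc: 16 hr compound, 37 C, 5% CO2; read-out luciferase luminescence.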

Row | SMILES | Potency
40 | c1ccc2c(c1)-c1cccc3cccc-2c13 | inconclusive: 30.6 µM [activator, full curve, poor fit]
41 | Nc1ccc([N+](=O)[O-])cc1N | inconclusive: 33.5 µM [activator, partial curve, poor fit] and inconclusive: 54.5 µM [activator, partial curve, poor fit]
42 | Nc1ccccc1C(=O)OCCc1ccccc1 | inconclusive: 29.8 µM [activator, partial curve, poor fit]
43 | Cc1cc(N=Nc2ccccc2C)ccc1N | inconclusive: 750 nM [activator, full curve, poor fit] and inconclusive: 3.44 µM [activator, full curve, poor fit]
44 | c1ccc(Nc2ccc(Nc3ccccc3)cc2)cc1 | inconclusive: 4.22 µM [activator, full curve, poor fit]
45 | c1ccc2cc3c(cc2c1)-c1cccc2cccc-3c12 | active: 9.44 µM and active: 8.63 µM
46 | CN(C)c1ccc(N(C)C)cc1 | inconclusive: 59.6 µM [activator, partial curve, poor fit]

Test system: not listed separately
Assay: qHTS assay for small molecule antagonists of the retinoid-related orphan receptor gamma (ROR-gamma) signaling pathway - cell viability counter screen (AID 720652);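 note: compound exposure lasted 16 hr before ATP read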; note: potency is the fitted concentration of half-maximal effect;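 for activity change, negative = cytotoxicity: CHO reporter cells with doxycycline-induced ROR-gamma expression; % is set by controls: 0 for no effect and ±100 for the full control effect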
Details: RORgamma reporter cell line viability counter screen; series mostly up to 92.2 µM; activity change, negative = cytotoxicity: at the top concentration
Summary of the method: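 Counter screen in CHO cells carrying TET-inducible ROR-gamma and an ROR response element-luciferase reporter; cells plated 5 hr, compound pinned, doxycycline added, then 16 hr at 37 C. Viability read as intracellular ATP by CellTiter-Glo luminescence.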

Row | SMILES | Potency
47 | N#CC(Br)Br | inconclusive: 42.2 µM [cytotoxic, partial curve]
48 | O=[N+]([O-])c1ccccc1CCl | inconclusive: 75 µM [cytotoxic, single point]
49 | Cc1cc(N=Nc2ccccc2C)ccc1N | inconclusive: 66.8 µM [cytotoxic, single point]
50 | O=[N+]([O-])c1cc(C(F)(F)F)cc([N+](=O)[O-])c1Cl | active: 66.8 µM
51 | Brc1ccc(Oc2ccc(Br)cc2Br)c(Br)c1 | inconclusive: 75 µM [cytotoxic, partial curve, poor fit]
52 | CN(C)c1ccc(N(C)C)cc1 | inconclusive: 33.5 µM [cytotoxic, partial curve, poor fit]
53 | CCOP(=S)(OCC)Oc1ccc([N+](=O)[O-])cc1 | inactive
